# Test results: the supplement of paper PMC6206098
# ± gives the uncertainty stated by the source. The sequences are guide strands of siRNAs; only the seed at positions 2 to 7 varies.
# Experiments:
# HeyA8 = assay: cell viability relative to lipid-only control; higher = less toxic; conditions: concentration: 10 nM; 96 h; Homo sapiens
# M565 = assay: as above; conditions: concentration: 10 nM; 96 h; Mus musculus
# H460 = assay: as above; conditions: concentration: 10 nM; 96 h; Homo sapiens
# 3LL = assay: cell viability relative to siNT1 control; HeyA8 human ovarian and H460 human lung cancer; M565 mouse liver and 3LL mouse lung cancer; siNT1 is a non-toxic control siRNA; higher = less toxic; conditions: concentration: 10 nM; 96 h; Mus musculus
# 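Throughout, for cell viability relative to lipid-only control: reverse lipid transfection in 384-well plates, in triplicate, of duplexes on a non-toxic 19mer backbone with passenger strand 2′-O-methylated at positions 1 and 2, luminescence viability read-out.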
# 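Throughout, for cell viability relative to siNT1 control: Luminescence-based viability of cells reverse transfected in 384-well plates with lipid-complexed siRNAs built on a non-toxic 19mer backbone whose passenger strand carries 2′-O-methyl groups at positions 1 and 2, triplicates.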
Sequence,cell viability (HeyA8) [%],cell viability (M565) [%],cell viability (H460) [%],cell viability (3LL) [%]
UUAAAUAACAUGUAAACCAAA,96.7 ± 8.8,98.5 ± 8.8,79.5 ± 22,83.5 ± 6.5
UUGGGAAACAUGUAAACCAAA,67 ± 4.1,68.4 ± 3.1,61 ± 6.3,63 ± 8.7
UAGUCAUACAUGUAAACCAAA,44.2 ± 5.2,52.7 ± 7.8,86.7 ± 18,57.4 ± 5.9
UCUCAUAACAUGUAAACCAAA,87.7 ± 10,90.1 ± 9.6,25.5 ± 2.2,103 ± 14
UGGACAGACAUGUAAACCAAA,55.8 ± 3.1,6.73 ± 1.2,47.5 ± 4.4,35 ± 7.6
UGAGAGUACAUGUAAACCAAA,40.4 ± 4.5,3.92 ± 0.19,50.4 ± 7.8,49.5 ± 13
UGUCCCGACAUGUAAACCAAA,31.5 ± 6.9,5.93 ± 2.5,44.3 ± 7.1,42.9 ± 10
UCAAGCGACAUGUAAACCAAA,83.5 ± 7.6,54.7 ± 1.6,62.6 ± 7.5,90.4 ± 18
UGUAGGUACAUGUAAACCAAA,4.29 ± 0.18,5.44 ± 1.5,33.7 ± 3.7,14.3 ± 8.3
UUGGCCGACAUGUAAACCAAA,75.1 ± 6.8,93.9 ± 19,64.1 ± 5.8,70.5 ± 5.1
UUGAAAGACAUGUAAACCAAA,86 ± 8.3,85.4 ± 22,68.9 ± 7.6,93.9 ± 7.2
UAUUACGACAUGUAAACCAAA,95.9 ± 13,98.5 ± 19,74.8 ± 7.9,103 ± 15
UAAGUUGACAUGUAAACCAAA,77.7 ± 13,69.4 ± 3.8,65.3 ± 5.5,85.4 ± 6.9
UCUAACGACAUGUAAACCAAA,86.5 ± 5.6,68.1 ± 12,54.5 ± 3.6,96.7 ± 18
UAAUUUCACAUGUAAACCAAA,83.9 ± 4.9,101 ± 23,59.8 ± 4.2,47.7 ± 6.1
UGCUUUCACAUGUAAACCAAA,13.1 ± 1.5,73.1 ± 11,45.3 ± 13,24.7 ± 4.4
UUCAUAGACAUGUAAACCAAA,80.3 ± 1.9,53.9 ± 7.5,40.9 ± 7.5,67.6 ± 2.8
UUCAGGAACAUGUAAACCAAA,88.8 ± 14,44.5 ± 2.8,68 ± 12,90.2 ± 20
UCGGCAAACAUGUAAACCAAA,74.5 ± 6.3,66.8 ± 6.6,63.3 ± 5.5,92.6 ± 4.8
UGCAUCCACAUGUAAACCAAA,47.5 ± 5.6,25.8 ± 1.5,54.8 ± 3.8,27.7 ± 0.34
UUGUCUCACAUGUAAACCAAA,71.6 ± 6.3,100 ± 8.6,80.7 ± 1.1,39 ± 1.4
UUCGCAGACAUGUAAACCAAA,87.9 ± 14,74.1 ± 6.3,75.9 ± 15,91.3 ± 13

Sequence,cell viability (HeyA8) [%],cell viability (M565) [%],cell viability (H460) [%],cell viability (3LL) [%]
UAAGUUCACAUGUAAACCAAA,52.7 ± 6.7,19.2 ± 1.6,58.6 ± 4.7,61.3 ± 4.2
UUAGCGCACAUGUAAACCAAA,82.2 ± 1.8,59 ± 3.9,82.3 ± 6.9,84.9 ± 5.6
UUGGGCCACAUGUAAACCAAA,19.9 ± 6,13.5 ± 3.7,28.1 ± 1.7,25.7 ± 0.93
UAUCGCGACAUGUAAACCAAA,106 ± 8.5,96.5 ± 3.7,90 ± 4.4,117 ± 9.2
UUAGCGGACAUGUAAACCAAA,92.6 ± 2.1,64.4 ± 10,83 ± 2.3,58.4 ± 9.5
UGCCGAAACAUGUAAACCAAA,91.1 ± 3.1,51.3 ± 8.8,100 ± 8.1,89.1 ± 12
UCACUUCACAUGUAAACCAAA,27.5 ± 2.3,41.1 ± 11,32.5 ± 2.4,93.6 ± 13
UGACAUCACAUGUAAACCAAA,5.09 ± 0.36,12.8 ± 0.94,13.1 ± 1.5,2.38 ± 0.28
UGGAAUUACAUGUAAACCAAA,59.2 ± 3.4,50.9 ± 9.3,56.3 ± 13,101 ± 10
UACGAGCACAUGUAAACCAAA,72.5 ± 8.4,17.9 ± 1.6,97.094 ± 0.073,74.4 ± 8.6
UACCCGUACAUGUAAACCAAA,73.7 ± 7.7,39.3 ± 6.2,59.2 ± 5.3,54 ± 8.1
UUGACCAACAUGUAAACCAAA,76.4 ± 4.5,38.6 ± 7.6,58.2 ± 5.7,67.6 ± 9
UGGUACAACAUGUAAACCAAA,41.1 ± 3.2,59.1 ± 11,50.5 ± 5.7,65.2 ± 11
UAACGCUACAUGUAAACCAAA,83 ± 8.7,70.2 ± 3.8,62.5 ± 6.2,81.8 ± 4.2
UAAUCUCACAUGUAAACCAAA,64.9 ± 4.9,96.4 ± 18,61 ± 14,102 ± 8.2
UUGUGAAACAUGUAAACCAAA,48.3 ± 3.3,70.9 ± 6.9,47.1 ± 9.2,87.3 ± 6.1
UACAACGACAUGUAAACCAAA,87 ± 4.9,85.4 ± 7.2,85.7 ± 9.1,97.8 ± 15
UAAUCCUACAUGUAAACCAAA,76.7 ± 4.1,60.3 ± 8.8,58.5 ± 5.2,37 ± 6.5
UAGUUACACAUGUAAACCAAA,20.1 ± 1.4,12.7 ± 1.6,37.8 ± 5.7,55.5 ± 10
UUGACGAACAUGUAAACCAAA,93 ± 12,62.4 ± 6.9,85.9 ± 1.4,97.9 ± 17
UCGCCUUACAUGUAAACCAAA,68 ± 6.8,52 ± 17,67.3 ± 11,80.2 ± 20
UACUGGUACAUGUAAACCAAA,41.01 ± 0.32,36.5 ± 6.7,72.4 ± 8.2,53.6 ± 4.1
